Data published in the supplement of paper PMC4604168 (melanoma cell lines).
The other results are listed elsewhere or left out. Most values come without repeats; read them as rough.

Test system: IST-MEL1
Test: cell count relative to DMSO control; melanoma cells; higher = more viable cells
Conditions: library dose: standard library concentration; 72 h
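Also: cells treated in 1,536-well plates, then fixed and DAPI-stained, with nuclei counted from automated high-throughput microscope images.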

Structure (SMILES) | cell count
C=CCNC1=C2C[C@@H](C)C[C@H](OC)[C@H](O)[C@@H](C)/C=C(\C)[C@H](OC(N)=O)[C@@H](OC)/C=C\C=C(/C)C(=O)NC(=CC1=O)C2=O [Tanespimycin] + NC(=O)Nc1cc(-c2cccc(F)c2)sc1C(=O)N[C@H]1CCCNC1 [AZD7762] (first compound 0.01 µM, partner dose 0.1 µM) | 44.7%
CS(=O)(=O)CCNCc1ccc(-c2ccc3ncnc(Nc4ccc(OCc5cccc(F)c5)c(Cl)c4)c3c2)o1 [lapatinib] + C=C(c1ccc(C(=O)O)cc1)c1cc2c(cc1C)C(C)(C)CCC2(C)C [Bexarotene] (first compound 4 µM, partner dose 10 µM) | 63.2%
CN1CCN(c2ccc3nc(-c4c(N)c5c(F)cccc5[nH]c4=O)[nH]c3c2)CC1 [Dovitinib] + Cn1cncc1[C@@](N)(c1ccc(Cl)cc1)c1ccc2c(c1)c(-c1cccc(Cl)c1)cc(=O)n2C [tipifarnib] (first compound 0.5 µM, partner dose 0.05 µM) | 58.1%
CS(=O)(=O)CCNCc1ccc(-c2ccc3ncnc(Nc4ccc(OCc5cccc(F)c5)c(Cl)c4)c3c2)o1 [lapatinib] + Cn1c(Nc2ccc(C(F)(F)F)cc2)nc2cc(Oc3ccnc(-c4ncc(C(F)(F)F)[nH]4)c3)ccc21 [CHIR265] (first compound 4 µM, partner dose 0.4 µM) | 73%
CS(=O)(=O)CCNCc1ccc(-c2ccc3ncnc(Nc4ccc(OCc5cccc(F)c5)c(Cl)c4)c3c2)o1 [lapatinib] + O=C(O)c1ccc2c(c1)nc(Nc1cccc(Cl)c1)c1ccncc12 [CX4945] (first compound 4 µM, partner dose 2 µM) | 67.7%
CNC(=O)c1cc(Oc2ccc(NC(=O)Nc3ccc(Cl)c(C(F)(F)F)c3)cc2)ccn1 [sorafenib] + COc1ccc2c(c1)CCC1C2CCC2(C)C(NCCCCCCN3C(=O)C=CC3=O)CCC12 [U73122] (first compound 2 µM, partner dose 2 µM) | 96.1%
CNC(=O)c1cc(Oc2ccc(NC(=O)Nc3ccc(Cl)c(C(F)(F)F)c3)cc2)ccn1 [sorafenib] + c1cc(-c2cnn3cc(-c4ccc(OCCN5CCCCC5)cc4)cnc23)ccn1 [Dorsomorphin] (first compound 2 µM, partner dose 2 µM) | 81.3%
C[C@@H](Oc1cc(-c2cnn(C3CCNCC3)c2)cnc1N)c1c(Cl)ccc(F)c1Cl [Crizotinib] + CC(C)CCN1c2nc(Nc3cc(F)c(O)c(F)c3)ncc2N(C)C(=O)C1C [BID1870] (first compound 1 µM, partner dose 1 µM) | 83.3%
C[C@@H](Oc1cc(-c2cnn(C3CCNCC3)c2)cnc1N)c1c(Cl)ccc(F)c1Cl [Crizotinib] + O=C(O)c1ccc2c(c1)nc(Nc1cccc(Cl)c1)c1ccncc12 [CX4945] (first compound 1 µM, partner dose 2 µM) | 73.1%
C[C@@H](Oc1cc(-c2cnn(C3CCNCC3)c2)cnc1N)c1c(Cl)ccc(F)c1Cl [Crizotinib] + CN(C)S(=O)(=O)c1ccc2c(c1)/C(=C/c1cc3c([nH]1)CCCC3)C(=O)N2 [SU6656] (first compound 1 µM, partner dose 2 µM) | 66.9%
CNC(=O)c1cc(Oc2ccc(NC(=O)Nc3ccc(Cl)c(C(F)(F)F)c3)cc2)ccn1 [sorafenib] + CC(=O)c1c(C)c2cnc(Nc3ccc(N4CCNCC4)cn3)nc2n(C2CCCC2)c1=O [palbociclib] (first compound 2 µM, partner dose 0.2 µM) | 74.6%
CNC(=O)c1cc(Oc2ccc(NC(=O)Nc3ccc(Cl)c(C(F)(F)F)c3)cc2)ccn1 [sorafenib] + C=CCn1c(=O)c2cnc(Nc3ccc(N4CCN(C)CC4)cc3)nc2n1-c1cccc(C(C)(C)O)n1 [MK1775] (first compound 2 µM, partner dose 0.1 µM) | 81.9%
CN1CCN(c2ccc3nc(-c4c(N)c5c(F)cccc5[nH]c4=O)[nH]c3c2)CC1 [Dovitinib] + CN(NC(=O)CC(=O)NN(C)C(=S)c1ccccc1)C(=S)c1ccccc1 [STA4783] (first compound 0.5 µM, partner dose 0.03 µM) | 48.1%
C[C@@H](Oc1cc(-c2cnn(C3CCNCC3)c2)cnc1N)c1c(Cl)ccc(F)c1Cl [Crizotinib] + Clc1ccc(Nc2nnc(Cc3ccncc3)c3ccccc23)cc1 [vatalanib] (first compound 1 µM, partner dose 10 µM) | 68.8%
C=CCNC1=C2C[C@@H](C)C[C@H](OC)[C@H](O)[C@@H](C)/C=C(\C)[C@H](OC(N)=O)[C@@H](OC)/C=C\C=C(/C)C(=O)NC(=CC1=O)C2=O [Tanespimycin] + CN(NC(=O)CC(=O)NN(C)C(=S)c1ccccc1)C(=S)c1ccccc1 [STA4783] (first compound 0.01 µM, partner dose 0.03 µM) | 7.04%
CS(=O)(=O)CCNCc1ccc(-c2ccc3ncnc(Nc4ccc(OCc5cccc(F)c5)c(Cl)c4)c3c2)o1 [lapatinib] + O=C(O)C(=O)Nc1sc2c(c1C(=O)O)CCNC2 [TCS401] (first compound 4 µM, partner dose 8.33333 µM) | 114%
CN1CCN(c2ccc3nc(-c4c(N)c5c(F)cccc5[nH]c4=O)[nH]c3c2)CC1 [Dovitinib] + CC1(C)NC(=O)N(c2ccc([N+](=O)[O-])c(C(F)(F)F)c2)C1=O [nilutamide] (first compound 0.5 µM, partner dose 5 µM) | 74.8%
CS(=O)(=O)CCNCc1ccc(-c2ccc3ncnc(Nc4ccc(OCc5cccc(F)c5)c(Cl)c4)c3c2)o1 [lapatinib] + C[C@@H]1CCN(C(=O)CC#N)C[C@@H]1N(C)c1ncnc2[nH]ccc12 [CP690550] (first compound 4 µM, partner dose 5 µM) | 113%
C[C@@H](Oc1cc(-c2cnn(C3CCNCC3)c2)cnc1N)c1c(Cl)ccc(F)c1Cl [Crizotinib] + C[C@@H]1CCN(C(=O)CC#N)C[C@@H]1N(C)c1ncnc2[nH]ccc12 [CP690550] (first compound 1 µM, partner dose 5 µM) | 99.3%
C[C@@H](Oc1cc(-c2cnn(C3CCNCC3)c2)cnc1N)c1c(Cl)ccc(F)c1Cl [Crizotinib] + NC(=O)Nc1cc(-c2cccc(F)c2)sc1C(=O)N[C@H]1CCCNC1 [AZD7762] (first compound 1 µM, partner dose 0.1 µM) | 114%
CN1CCN(c2ccc3nc(-c4c(N)c5c(F)cccc5[nH]c4=O)[nH]c3c2)CC1 [Dovitinib] + N#Cc1c(O)c2c(-c3ccc(-c4ccccc4O)cc3)csc2[nH]c1=O [A769662] (first compound 0.5 µM, partner dose 10 µM) | 70.1%
CN1CCN(c2ccc3nc(-c4c(N)c5c(F)cccc5[nH]c4=O)[nH]c3c2)CC1 [Dovitinib] + C#Cc1cccc(Nc2ncnc3cc(OCCOC)c(OCCOC)cc23)c1 [erlotinib] (first compound 0.5 µM, partner dose 4 µM) | 77.1%
CN1CCN(c2ccc3nc(-c4c(N)c5c(F)cccc5[nH]c4=O)[nH]c3c2)CC1 [Dovitinib] + O=C(O)C(=O)Nc1sc2c(c1C(=O)O)CCNC2 [TCS401] (first compound 0.5 µM, partner dose 8.33333 µM) | 76.6%
C[C@@H](Oc1cc(-c2cnn(C3CCNCC3)c2)cnc1N)c1c(Cl)ccc(F)c1Cl [Crizotinib] + Cn1nnc2c(C(N)=O)ncn2c1=O [temozolomide] (first compound 1 µM, partner dose 10 µM) | 80.2%
C=CCNC1=C2C[C@@H](C)C[C@H](OC)[C@H](O)[C@@H](C)/C=C(\C)[C@H](OC(N)=O)[C@@H](OC)/C=C\C=C(/C)C(=O)NC(=CC1=O)C2=O [Tanespimycin] + OCCn1cc(-c2cnc3nnn(Cc4ccc5ncccc5c4)c3n2)cn1 [PF04217903] (first compound 0.01 µM, partner dose 5 µM) | 56.1%
C[C@@H](Oc1cc(-c2cnn(C3CCNCC3)c2)cnc1N)c1c(Cl)ccc(F)c1Cl [Crizotinib] + C=CCn1c(=O)c2cnc(Nc3ccc(N4CCN(C)CC4)cc3)nc2n1-c1cccc(C(C)(C)O)n1 [MK1775] (first compound 1 µM, partner dose 0.1 µM) | 78.3%
C=CCNC1=C2C[C@@H](C)C[C@H](OC)[C@H](O)[C@@H](C)/C=C(\C)[C@H](OC(N)=O)[C@@H](OC)/C=C\C=C(/C)C(=O)NC(=CC1=O)C2=O [Tanespimycin] + OCc1c[nH]c2ccccc12 [Indole-3-carbinol] (first compound 0.01 µM, partner dose 4 µM) | 80.4%
CS(=O)(=O)CCNCc1ccc(-c2ccc3ncnc(Nc4ccc(OCc5cccc(F)c5)c(Cl)c4)c3c2)o1 [lapatinib] + NC(=O)Nc1cc(-c2cccc(F)c2)sc1C(=O)N[C@H]1CCCNC1 [AZD7762] (first compound 4 µM, partner dose 0.1 µM) | 82.1%
CN1CCN(c2ccc3nc(-c4c(N)c5c(F)cccc5[nH]c4=O)[nH]c3c2)CC1 [Dovitinib] + Nc1ncn([C@H]2C[C@H](O)[C@@H](CO)O2)c(=O)n1 [decitabine] (first compound 0.5 µM, partner dose 0.5 µM) | 60.7%
